Experimental data taken from article PMC9911399, “Two distinct binding modes provide the RNA-binding protein RbFox with extraordinary sequence specificity”.
Changes are numbered by the printed parent chain; changes in the protein carry UniProt numbers. The list shows a part of the results.

T1: RBFOX1 RRM RbFoxmut (Fox-RRM*) (Homo sapiens, UniProt Q9NWB1 109-208, R118D;E147R;N151S;E152T)
T1 sequence: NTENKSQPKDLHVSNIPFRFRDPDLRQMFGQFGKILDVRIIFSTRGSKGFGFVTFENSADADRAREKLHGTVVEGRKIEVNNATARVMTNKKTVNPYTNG

B1: AAAAAGU (DNA:RNA)
RNA: GGGAGACCGGAAUUCAGAUUGUCCAAAAAGUUUAAAUCCCGUCGUAGCCACCA
DNA 1: CAATCTGAATTCCGGTCTCCC
DNA 2: TGGTGGCTACGACGGGATT
B2: UUAAAAU (DNA:RNA)
RNA: B1 RNA with A25U, A26U, G30A
DNA 1: CAATCTGAATTCCGGTCTCCC
DNA 2: TGGTGGCTACGACGGGATT
B3: AAGGUGC (DNA:RNA)
RNA: B1 RNA with A27G, A28G, A29U, U31C
DNA 1: CAATCTGAATTCCGGTCTCCC
DNA 2: TGGTGGCTACGACGGGATT
B4: UUCGGGG (DNA:RNA)
RNA: B1 RNA with A25U, A26U, A27C, A28G, A29G, U31G
DNA 1: CAATCTGAATTCCGGTCTCCC
DNA 2: TGGTGGCTACGACGGGATT
B5: UGAGGCC (DNA:RNA)
RNA: B1 RNA with A25U, A26G, A28G, A29G, G30C, U31C
DNA 1: CAATCTGAATTCCGGTCTCCC
DNA 2: TGGTGGCTACGACGGGATT
B6: UACUUCA (DNA:RNA)
RNA: B1 RNA with A25U, A27C, A28U, A29U, G30C, U31A
DNA 1: CAATCTGAATTCCGGTCTCCC
DNA 2: TGGTGGCTACGACGGGATT
B7: AGUUUUU (DNA:RNA)
RNA: B1 RNA with A26G, A27U, A28U, A29U, G30U
DNA 1: CAATCTGAATTCCGGTCTCCC
DNA 2: TGGTGGCTACGACGGGATT
B8: GGAACAA (DNA:RNA)
RNA: B1 RNA with A25G, A26G, A29C, G30A, U31A
DNA 1: CAATCTGAATTCCGGTCTCCC
DNA 2: TGGTGGCTACGACGGGATT
B9: CAAAACG (DNA:RNA)
RNA: B1 RNA with A25C, G30C, U31G
DNA 1: CAATCTGAATTCCGGTCTCCC
DNA 2: TGGTGGCTACGACGGGATT
B10: AAGAUAU (DNA:RNA)
RNA: B1 RNA with A27G, A29U, G30A
DNA 1: CAATCTGAATTCCGGTCTCCC
DNA 2: TGGTGGCTACGACGGGATT
B11: UGUAGGA (DNA:RNA)
RNA: B1 RNA with A25U, A26G, A27U, A29G, U31A
DNA 1: CAATCTGAATTCCGGTCTCCC
DNA 2: TGGTGGCTACGACGGGATT
B12: UCAUCCC (DNA:RNA)
RNA: B1 RNA with A25U, A26C, A28U, A29C, G30C, U31C
DNA 1: CAATCTGAATTCCGGTCTCCC
DNA 2: TGGTGGCTACGACGGGATT
B13: UAAGUUG (DNA:RNA)
RNA: B1 RNA with A25U, A28G, A29U, G30U, U31G
DNA 1: CAATCTGAATTCCGGTCTCCC
DNA 2: TGGTGGCTACGACGGGATT
B14: CCCUGUA (DNA:RNA)
RNA: GGGAGACCGGAAUUCAGAUUGUCCCCCUGUAUUAAAUCCCGUCGUAGCCACCA
DNA 1: CAATCTGAATTCCGGTCTCCC
DNA 2: TGGTGGCTACGACGGGATT
B15: GAGCCAU (DNA:RNA)
RNA: B1 RNA with A25G, A27G, A28C, A29C, G30A
DNA 1: CAATCTGAATTCCGGTCTCCC
DNA 2: TGGTGGCTACGACGGGATT
B16: CGGUAGA (DNA:RNA)
RNA: B14 RNA with C26G, C27G, G29A, U30G
DNA 1: CAATCTGAATTCCGGTCTCCC
DNA 2: TGGTGGCTACGACGGGATT
B17: AGGUUGC (DNA:RNA)
RNA: B1 RNA with A26G, A27G, A28U, A29U, U31C
DNA 1: CAATCTGAATTCCGGTCTCCC
DNA 2: TGGTGGCTACGACGGGATT
B18: AUGGGCG (DNA:RNA)
RNA: B1 RNA with A26U, A27G, A28G, A29G, G30C, U31G
DNA 1: CAATCTGAATTCCGGTCTCCC
DNA 2: TGGTGGCTACGACGGGATT
B19: GUAAGUG (DNA:RNA)
RNA: B1 RNA with A25G, A26U, A29G, G30U, U31G
DNA 1: CAATCTGAATTCCGGTCTCCC
DNA 2: TGGTGGCTACGACGGGATT
B20: GGUCCCG (DNA:RNA)
RNA: GGGAGACCGGAAUUCAGAUUGUCCGGUCCCGUUAAAUCCCGUCGUAGCCACCA
DNA 1: CAATCTGAATTCCGGTCTCCC
DNA 2: TGGTGGCTACGACGGGATT
B21: GUCUAAG (DNA:RNA)
RNA: B14 RNA with C25G, C26U, G29A, U30A, A31G
DNA 1: CAATCTGAATTCCGGTCTCCC
DNA 2: TGGTGGCTACGACGGGATT
B22: CUCUUGA (DNA:RNA)
RNA: B14 RNA with C26U, G29U, U30G
DNA 1: CAATCTGAATTCCGGTCTCCC
DNA 2: TGGTGGCTACGACGGGATT
B23: UGGCUAU (DNA:RNA)
RNA: B20 RNA with G25U, U27G, C29U, C30A, G31U
DNA 1: CAATCTGAATTCCGGTCTCCC
DNA 2: TGGTGGCTACGACGGGATT
B24: GAUAUCC (DNA:RNA)
RNA: B20 RNA with G26A, C28A, C29U, G31C
DNA 1: CAATCTGAATTCCGGTCTCCC
DNA 2: TGGTGGCTACGACGGGATT
B25: UGAUUGG (DNA:RNA)
RNA: B1 RNA with A25U, A26G, A28U, A29U, U31G
DNA 1: CAATCTGAATTCCGGTCTCCC
DNA 2: TGGTGGCTACGACGGGATT
B26: ACCGGAA (DNA:RNA)
RNA: B14 RNA with C25A, U28G, U30A
DNA 1: CAATCTGAATTCCGGTCTCCC
DNA 2: TGGTGGCTACGACGGGATT
B27: UGCUGGA (DNA:RNA)
RNA: B14 RNA with C25U, C26G, U30G
DNA 1: CAATCTGAATTCCGGTCTCCC
DNA 2: TGGTGGCTACGACGGGATT
B28: UUUAUUG (DNA:RNA)
RNA: B20 RNA with G25U, G26U, C28A, C29U, C30U
DNA 1: CAATCTGAATTCCGGTCTCCC
DNA 2: TGGTGGCTACGACGGGATT
B29: AUCACUG (DNA:RNA)
RNA: B1 RNA with A26U, A27C, A29C, G30U, U31G
DNA 1: CAATCTGAATTCCGGTCTCCC
DNA 2: TGGTGGCTACGACGGGATT
B30: ACCUUCG (DNA:RNA)
RNA: B14 RNA with C25A, G29U, U30C, A31G
DNA 1: CAATCTGAATTCCGGTCTCCC
DNA 2: TGGTGGCTACGACGGGATT
B31: CAGGCAC (DNA:RNA)
RNA: B1 RNA with A25C, A27G, A28G, A29C, G30A, U31C
DNA 1: CAATCTGAATTCCGGTCTCCC
DNA 2: TGGTGGCTACGACGGGATT

target: T1, RBFOX1 RRM RbFoxmut (Fox-RRM*); assay: EMSA; HiTS-Eq, 1 nM pool, 10 min; buffer printed only for the single-RNA assays: 10 mM Tris pH 7.5, 150 mM NaCl, 3.4 mM EDTA, 0.001% NP-40, 30 C; conditions: tags: His6 N-terminal (pET28a); label: 5' 32P
How it was run: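 Purified RbFox RRM (wild type or mutant) was equilibrated for 10 min in 50 µL with 1 nM of a 5′-radiolabelled pool of RNA with 7 randomized nucleotides, its flanks annealed to DNA oligonucleotides, across increasing protein concentrations. Free RNA was separated by 8% native PAGE, excised, reverse-transcribed, PCR-barcoded and sequenced on an Illumina HiSeq 2500. Relative association constants came from read-count changes of each variant against the control reaction, normalised to the cognate motif.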

Question: For B1, which binding signal is on record?
Answer: 0.115 KA relative to UGCAUGU

Question: With B2 as the binder, how does the binding signal read?
Answer: 0.0612 KA relative to UGCAUGU

Question: With B3 as the binder, how does the binding signal read?
Answer: 0.103 KA relative to UGCAUGU

Question: B4 was tested. Which binding signal did it give?
Answer: 0.0513 KA relative to UGCAUGU

Question: For B5, which binding signal is on record?
Answer: 0.143 KA relative to UGCAUGU

Question: With B6 as the binder, how does the binding signal read?
Answer: 0.0921 KA relative to UGCAUGU

Question: How did the binding signal turn out when B7 was run?
Answer: 0.102 KA relative to UGCAUGU

Question: For B8, which binding signal is on record?
Answer: 0.0966 KA relative to UGCAUGU

Question: With B9 as the binder, how does the binding signal read?
Answer: 0.0837 KA relative to UGCAUGU

Question: For B10, which binding signal is on record?
Answer: 0.106 KA relative to UGCAUGU

Question: How did the binding signal turn out when B11 was run?
Answer: 0.0682 KA relative to UGCAUGU

Question: With B12 as the binder, how does the binding signal read?
Answer: 0.0352 KA relative to UGCAUGU

Question: Which binding signal does the source give for B13 here?
Answer: 0.141 KA relative to UGCAUGU

Question: For B14, which binding signal is on record?
Answer: 0.201 KA relative to UGCAUGU

Question: With B15 as the binder, how does the binding signal read?
Answer: 0.0689 KA relative to UGCAUGU

Question: B16 was tested. Which binding signal did it give?
Answer: 0.126 KA relative to UGCAUGU

Question: With B17 as the binder, how does the binding signal read?
Answer: 0.201 KA relative to UGCAUGU

Question: How did the binding signal turn out when B18 was run?
Answer: 0.171 KA relative to UGCAUGU

Question: For B19, which binding signal is on record?
Answer: 0.134 KA relative to UGCAUGU

Question: How did the binding signal turn out when B20 was run?
Answer: 0.0821 KA relative to UGCAUGU

Question: B21 was tested. Which binding signal did it give?
Answer: 0.114 KA relative to UGCAUGU

Question: How did the binding signal turn out when B22 was run?
Answer: 0.107 KA relative to UGCAUGU

Question: How did the binding signal turn out when B23 was run?
Answer: 0.0994 KA relative to UGCAUGU

Question: Which binding signal does the source give for B24 here?
Answer: 0.0909 KA relative to UGCAUGU

Question: How did the binding signal turn out when B25 was run?
Answer: 0.163 KA relative to UGCAUGU

Question: Which binding signal does the source give for B26 here?
Answer: 0.0811 KA relative to UGCAUGU

Question: For B27, which binding signal is on record?
Answer: 0.0859 KA relative to UGCAUGU

Question: B28 was tested. Which binding signal did it give?
Answer: 0.136 KA relative to UGCAUGU

Question: For B29, which binding signal is on record?
Answer: 0.116 KA relative to UGCAUGU

Question: With B30 as the binder, how does the binding signal read?
Answer: 0.102 KA relative to UGCAUGU

Question: Which binding signal does the source give for B31 here?
Answer: 0.102 KA relative to UGCAUGU
